Patent US10299477B2 (priority 2015, dated 2019)

What was measured:
Type in all cases: in vivo
Botrytis cinerea = assay: Test Example B: Gray mold on tomato; conditions: for Test B control value (gray mold on tomato): preventive, control value class; for Test B (control value class, gray mold on tomato): in vivo
Source text: [Test Example B] Gray Mold on Tomato
Seeds of a test plant (tomato variety: Oogata Fukuju) were planted followed by cultivating until three to five first leaves (true leaves) appeared.

Alternaia brassicicola = assay: Test Example C: Alternaria sooty spot on cabbage; conditions: for Test C control value (Alternaria sooty spot on cabbage): preventive, control value class; for Test C (control value class): Alternaria sooty spot on cabbage; for Test C (control value class, Alternaria sooty spot on cabbage): in vivo
Source text: [Test Example C] Alternaria Sooty Spot on Cabbage
Seeds of a test plant (cabbage variety: Shikidori) were planted followed by cultivating until the cotyledons extended.

[1] = tested on: Blumeria graminis f sp. hordei; assay: Test Example D: Powdery mildew on barley; conditions: for Test D control value (powdery mildew on barley): preventive, control value class; for Test D (control value class, powdery mildew on barley): in vivo
Source text: [Test Example D] Powdery Mildew on Barley
After the sprayed dilutions were dried, conidia of Blumeria graminis f sp. hordei were inoculated to the plants by shaking off.

Puccinia recondita = assay: Test Example E: Brown rust on wheat; conditions: for Test E control value (brown rust on wheat): preventive, control value class; for Test E (control value class, brown rust on wheat): in vivo
Source text: [Test Example E] Brown Rust on Wheat

Plasmopara viticola = assay: Test Example G: Downy mildew on vine; conditions: for Test G control value (downy mildew on vine): 250 ppm spray (2.5 ml/pot), preventive, control value class; for Test G (control value class): 250 ppm spray; for Test G (control value class, downy mildew on vine): 250 ppm, sprayed 2.5 ml/pot before inoculation
Source text: [Test Example G] Downy Mildew on Vine
Seeds of a test plant (grape variety: Neomuscat) were planted followed by cultivating until three to four first leaves appeared. […] After the sprayed dilutions were dried, a zoosporangia suspension (1-2×10^4 zoosporangia/ml) of Plasmopara viticola was inoculated to the plants by spraying.

[2] = gray mold on tomato, Botrytis cinerea, 250 ppm spray
[3] = powdery mildew on barley, 250 ppm spray
[4] = brown rust on wheat, Puccinia recondita, 250 ppm spray
[5] = downy mildew on vine, Plasmopara viticola, 7-10 days after inoculation
[6] = Gray mold on tomato, control value=100{1-(n/3)}
[7] = Powdery mildew on barley, control value=100{1-(n/3)}
[8] = Brown rust on wheat, control value=100{1-(n/3)}
[9] = Downy mildew on vine, 2.5 ml/pot, evaluated 7-10 days after inoculation
[10] = evaluated 7-10 days after inoculation

## CCn1c(-c2c(F)cccc2F)c(-c2cccc(Cl)c2Cl)ccc1=O [Compound 349]
Botrytis cinerea; 250 ppm spray
  Test B control value (gray mold on tomato): H (H shows more than 50% of control values)
Alternaia brassicicola; 250 ppm spray
  Test C control value (Alternaria sooty spot on cabbage): H (H shows more than 50% of control values)
[1]; 250 ppm spray
  Test D control value (powdery mildew on barley): H (H shows more than 50% of control values)
Puccinia recondita; 250 ppm spray
  Test E control value (brown rust on wheat): H (H shows more than 50% of control values)
Plasmopara viticola; 7-10 days after inoculation
  Test G control value (downy mildew on vine): H (H shows more than 50% of control values)

## Cn1c(-c2c(F)cc(F)cc2F)c(-c2ccccc2F)ccc1=O [Compound 528]
Botrytis cinerea; [2]
  Test B (control value class): H (H shows more than 50% of control values)
Alternaia brassicicola; 250 ppm spray
  Test C (control value class): H (H shows more than 50% of control values)
[1]; [3]
  Test D (control value class): H (H shows more than 50% of control values)
Puccinia recondita; [4]
  Test E (control value class): H (H shows more than 50% of control values)
Plasmopara viticola; [5]
  Test G (control value class): H (H shows more than 50% of control values)

## Cc1cc(-c2cccc(F)c2Cl)c(-c2c(F)cccc2F)n(C)c1=O [Compound 754]
Botrytis cinerea; [6]
  Test B (control value class): H (H shows more than 50% of control values)
Alternaia brassicicola; control value=100{1-(n/3)}
  Test C (control value class): H (H shows more than 50% of control values)
[1]; [7]
  Test D (control value class): H (H shows more than 50% of control values)
Puccinia recondita; [8]
  Test E (control value class): H (H shows more than 50% of control values)
Plasmopara viticola; [9]
  Test G (control value class): L (L shows 50% or less of control values)

## CN1C(=O)CCC(c2ccccc2Cl)=C1c1c(F)cc(F)cc1F [Compound 705]
Botrytis cinerea
  Test B (control value class, gray mold on tomato): H (H shows more than 50% of control values)
Alternaia brassicicola
  Test C (control value class, Alternaria sooty spot on cabbage): L (L shows 50% or less of control values)
[1]
  Test D (control value class, powdery mildew on barley): H (H shows more than 50% of control values)
Puccinia recondita
  Test E (control value class, brown rust on wheat): H (H shows more than 50% of control values)
Plasmopara viticola; [10]
  Test G (control value class, downy mildew on vine): L (L shows 50% or less of control values)

## CCn1c(-c2c(F)cccc2F)c(-c2cc(OCCOC)ccc2Cl)cc(Cl)c1=O [Compound 195]
Botrytis cinerea; 250 ppm spray
  Test B control value (gray mold on tomato): H (H shows more than 50% of control values)
Alternaia brassicicola; 250 ppm spray
  Test C control value (Alternaria sooty spot on cabbage): H (H shows more than 50% of control values)
[1]; 250 ppm spray
  Test D control value (powdery mildew on barley): H (H shows more than 50% of control values)
Puccinia recondita; 250 ppm spray
  Test E control value (brown rust on wheat): H (H shows more than 50% of control values)
Plasmopara viticola; 7-10 days after inoculation
  Test G control value (downy mildew on vine): H (H shows more than 50% of control values)

## CCOc1cc(F)c(-c2c(-c3cccc(OC)c3Cl)cc(C)c(=O)n2CC)c(F)c1 [Compound 645]
Botrytis cinerea
  Test B (control value class, gray mold on tomato): H (H shows more than 50% of control values)
Alternaia brassicicola
  Test C (control value class, Alternaria sooty spot on cabbage): H (H shows more than 50% of control values)
[1]
  Test D (control value class, powdery mildew on barley): H (H shows more than 50% of control values)
Puccinia recondita
  Test E (control value class, brown rust on wheat): H (H shows more than 50% of control values)
Plasmopara viticola; [10]
  Test G (control value class, downy mildew on vine): H (H shows more than 50% of control values)

## CCN1C(=O)CCC(c2cccc(OC(F)(F)F)c2)=C1c1c(F)cccc1F [Compound 208]
Botrytis cinerea; 250 ppm spray
  Test B control value (gray mold on tomato): L (L shows 50% or less of control values)
Alternaia brassicicola; 250 ppm spray
  Test C control value (Alternaria sooty spot on cabbage): L (L shows 50% or less of control values)
[1]; 250 ppm spray
  Test D control value (powdery mildew on barley): L (L shows 50% or less of control values)
Puccinia recondita; 250 ppm spray
  Test E control value (brown rust on wheat): L (L shows 50% or less of control values)
Plasmopara viticola; 7-10 days after inoculation
  Test G control value (downy mildew on vine): L (L shows 50% or less of control values)

## COc1cc(OC)cc(C2=C(c3ccccc3F)N(C)C(=O)CC2)c1 [Compound 226]
Botrytis cinerea; 250 ppm spray
  Test B control value (gray mold on tomato): H (H shows more than 50% of control values)
Alternaia brassicicola; 250 ppm spray
  Test C control value (Alternaria sooty spot on cabbage): H (H shows more than 50% of control values)
[1]; 250 ppm spray
  Test D control value (powdery mildew on barley): L (L shows 50% or less of control values)
Puccinia recondita; 250 ppm spray
  Test E control value (brown rust on wheat): H (H shows more than 50% of control values)
Plasmopara viticola; 7-10 days after inoculation
  Test G control value (downy mildew on vine): H (H shows more than 50% of control values)

## CCn1c(-c2c(F)cccc2F)c(-c2cccc(F)c2Cl)ccc1=O [Compound 506]
Botrytis cinerea; [2]
  Test B (control value class): H (H shows more than 50% of control values)
Alternaia brassicicola; 250 ppm spray
  Test C (control value class): H (H shows more than 50% of control values)
[1]; [3]
  Test D (control value class): H (H shows more than 50% of control values)
Puccinia recondita; [4]
  Test E (control value class): H (H shows more than 50% of control values)
Plasmopara viticola; [5]
  Test G (control value class): H (H shows more than 50% of control values)

## CCn1c(-c2c(F)cccc2F)c(-c2cccc(OC)c2Cl)cc(Cl)c1=O [Compound 783]
Botrytis cinerea; [6]
  Test B (control value class): H (H shows more than 50% of control values)
Alternaia brassicicola; control value=100{1-(n/3)}
  Test C (control value class): H (H shows more than 50% of control values)
[1]; [7]
  Test D (control value class): H (H shows more than 50% of control values)
Puccinia recondita; [8]
  Test E (control value class): H (H shows more than 50% of control values)
Plasmopara viticola; [9]
  Test G (control value class): H (H shows more than 50% of control values)

## O=c1c(Cl)cc(-c2c(F)c(F)c(F)c(F)c2F)c(-c2c(F)cccc2F)n1CC(F)F [Compound 384]
Botrytis cinerea; [2]
  Test B (control value class): L (L shows 50% or less of control values)
Alternaia brassicicola; 250 ppm spray
  Test C (control value class): L (L shows 50% or less of control values)
[1]; [3]
  Test D (control value class): H (H shows more than 50% of control values)
Puccinia recondita; [4]
  Test E (control value class): H (H shows more than 50% of control values)
Plasmopara viticola; [5]
  Test G (control value class): L (L shows 50% or less of control values)

## CCn1c(-c2c(F)cccc2F)c(-c2cc(F)cc(F)c2F)cc(C)c1=O [Compound 459]
Botrytis cinerea; [2]
  Test B (control value class): H (H shows more than 50% of control values)
Alternaia brassicicola; 250 ppm spray
  Test C (control value class): H (H shows more than 50% of control values)
[1]; [3]
  Test D (control value class): H (H shows more than 50% of control values)
Puccinia recondita; [4]
  Test E (control value class): H (H shows more than 50% of control values)
Plasmopara viticola; [5]
  Test G (control value class): L (L shows 50% or less of control values)

## O=c1ccc(-c2ccc(Cl)cc2F)c(-c2c(F)cccc2F)n1CC(F)F [Compound 428]
Botrytis cinerea; [2]
  Test B (control value class): H (H shows more than 50% of control values)
Alternaia brassicicola; 250 ppm spray
  Test C (control value class): H (H shows more than 50% of control values)
[1]; [3]
  Test D (control value class): H (H shows more than 50% of control values)
Puccinia recondita; [4]
  Test E (control value class): H (H shows more than 50% of control values)
Plasmopara viticola; [5]
  Test G (control value class): H (H shows more than 50% of control values)

## CCn1c(-c2c(F)cc(F)cc2F)c(-c2ccccc2F)ccc1=O [Compound 527]
Botrytis cinerea; [2]
  Test B (control value class): H (H shows more than 50% of control values)
Alternaia brassicicola; 250 ppm spray
  Test C (control value class): H (H shows more than 50% of control values)
[1]; [3]
  Test D (control value class): H (H shows more than 50% of control values)
Puccinia recondita; [4]
  Test E (control value class): H (H shows more than 50% of control values)
Plasmopara viticola; [5]
  Test G (control value class): H (H shows more than 50% of control values)

## O=C1CCC(c2cc(F)ccc2Cl)=C(c2c(F)cccc2F)N1CC(F)F [Compound 388]
Botrytis cinerea; [2]
  Test B (control value class): H (H shows more than 50% of control values)
Alternaia brassicicola; 250 ppm spray
  Test C (control value class): L (L shows 50% or less of control values)
[1]; [3]
  Test D (control value class): H (H shows more than 50% of control values)
Puccinia recondita; [4]
  Test E (control value class): L (L shows 50% or less of control values)
Plasmopara viticola; [5]
  Test G (control value class): H (H shows more than 50% of control values)

## CCc1cc(-c2cc(OC)ccc2Cl)c(-c2c(F)cccc2F)n(CC)c1=O [Compound 369]
Botrytis cinerea; 250 ppm spray
  Test B control value (gray mold on tomato): H (H shows more than 50% of control values)
Alternaia brassicicola; 250 ppm spray
  Test C control value (Alternaria sooty spot on cabbage): H (H shows more than 50% of control values)
[1]; 250 ppm spray
  Test D control value (powdery mildew on barley): H (H shows more than 50% of control values)
Puccinia recondita; 250 ppm spray
  Test E control value (brown rust on wheat): H (H shows more than 50% of control values)
Plasmopara viticola; 7-10 days after inoculation
  Test G control value (downy mildew on vine): L (L shows 50% or less of control values)

## COc1cc(F)c(-c2c(-c3ccccc3Cl)cc(Cl)c(=O)n2C)c(F)c1 [Compound 435]
Botrytis cinerea; [2]
  Test B (control value class): H (H shows more than 50% of control values)
Alternaia brassicicola; 250 ppm spray
  Test C (control value class): H (H shows more than 50% of control values)
[1]; [3]
  Test D (control value class): H (H shows more than 50% of control values)
Puccinia recondita; [4]
  Test E (control value class): H (H shows more than 50% of control values)
Plasmopara viticola; [5]
  Test G (control value class): H (H shows more than 50% of control values)

## COc1ccc(Cl)c(-c2ccc(=O)n(C#N)c2-c2c(F)cccc2F)c1 [Compound 719]
Botrytis cinerea
  Test B (control value class, gray mold on tomato): H (H shows more than 50% of control values)
Alternaia brassicicola
  Test C (control value class, Alternaria sooty spot on cabbage): H (H shows more than 50% of control values)
[1]
  Test D (control value class, powdery mildew on barley): H (H shows more than 50% of control values)
Puccinia recondita
  Test E (control value class, brown rust on wheat): H (H shows more than 50% of control values)
Plasmopara viticola; [10]
  Test G (control value class, downy mildew on vine): H (H shows more than 50% of control values)

## Cn1c(-c2c(F)cccc2F)c(-c2cc(Cl)cc(Cl)c2Cl)ccc1=O [Compound 452]
Botrytis cinerea; [2]
  Test B (control value class): H (H shows more than 50% of control values)
Alternaia brassicicola; 250 ppm spray
  Test C (control value class): H (H shows more than 50% of control values)
[1]; [3]
  Test D (control value class): H (H shows more than 50% of control values)
Puccinia recondita; [4]
  Test E (control value class): H (H shows more than 50% of control values)
Plasmopara viticola; [5]
  Test G (control value class): L (L shows 50% or less of control values)
